# Results as given in the supplement of paper PMC4166925.
# ± gives the standard deviation of the averaged measurements. Whole data set: some 33,000 sequences, median “E-score (dimensionless, -0.5 to 0.5)” near -0.046, cut for the highest 2% near 0.36. Some of the results follow.
# System: T1, SpTbr T-box DNA-binding domain (GST fusion)
# T1 sequence: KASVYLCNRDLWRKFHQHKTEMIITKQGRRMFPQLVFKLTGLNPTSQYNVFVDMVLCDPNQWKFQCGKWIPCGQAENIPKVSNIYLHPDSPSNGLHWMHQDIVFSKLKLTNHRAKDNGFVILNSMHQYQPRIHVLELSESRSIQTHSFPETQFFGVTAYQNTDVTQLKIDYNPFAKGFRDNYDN
# Test: PBM E-score of 8-mer (E-score (dimensionless, -0.5 to 0.5)); Tbr is Tbrain of the sea star Patiria miniata (Pm) or the sea urchin Strongylocentrotus purpuratus (Sp); higher = stronger binding preference; most listed sequences are background and not binding sites
# Settings: the construct has about 5 more residues each side
# Method in brief: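 Each ungapped 8-mer received an enrichment E-score from the Universal PBM Analysis Suite, averaged over duplicate arrays. The proteins were Tbr T-box DNA-binding domains, covering the whole T-box plus about five flanking residues, fused to GST and expressed in BL21 E. coli at 20 °C before glutathione affinity purification. Universal Agilent oligonucleotide arrays were made double-stranded by primer extension and incubated with 200 nM protein in PBS (pH 7.5). The arrays were then scanned and quantified, and every 8-mer was scored from probe intensities.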
row,Sequence,PBM E-score of 8-mer
1,TACACTAA,0.0909 ± 0.0016
2,ACATCACG,0.2315 ± 0.0014
3,ACCGCCCC,-0.227 ± 0.025
4,ATGAGATG,-0.0776 ± 0.013
5,AGCTTAAG,-0.12 ± 0.078
6,AAAGAGCC,-0.358 ± 0.039
7,ATGGCCTG,-0.0801 ± 0.06
8,CTTTGCTC,-0.0235 ± 0.0015
9,TAGCTGAA,-0.281 ± 0.029
10,GTCTGCAC,0.131 ± 0.022
11,AACTAGGC,-0.0665 ± 0.022
12,CGCTTCCG,-0.0282 ± 0.071
13,AGTTCCCG,-0.186 ± 0.049
14,AGCAAGAA,-0.218 ± 0.0083
15,CAGTCCTA,-0.0937 ± 0.031
16,CAGCGATG,0.0311 ± 0.029
17,GAGCCAAC,-0.0337 ± 0.0027
18,GAGTTGAC,0.165 ± 0.018
19,ACCGGACT,-0.306 ± 0.011
20,CATCAGAA,-0.161 ± 0.039
21,GAAACCCC,-0.0958 ± 0.075
22,AGGGCTGC,-0.171 ± 0.016
23,GGGTTTGA,-0.0542 ± 0.055
24,ATTTCGGA,-0.14 ± 0.054
25,GTGTGTCA,0.346 ± 0.0092

row,Sequence,PBM E-score of 8-mer
1,GGACACGA,-0.011 ± 0.079
2,ACCCCCAC,-0.0417 ± 0.086
3,TAAGGGGA,-0.163 ± 0.0036
4,ATAACAAT,0.0414 ± 0.0069
5,ATCATCGG,-0.0361 ± 0.054
6,AGAGTCAT,-0.214 ± 0.017
7,GCGCGTTA,0.183 ± 0.021
8,AGCGTCAA,0.317 ± 0.0075
9,ATTGACGC,0.3005 ± 0.00032
10,ACTTCGAA,0.0384 ± 0.021
11,CAGTATCC,-0.104 ± 0.041
12,CGGATAAC,-0.141 ± 0.08
13,GAACCGAC,0.0433 ± 0.0082
14,GGGCGCAC,-0.0583 ± 0.009
15,CTCCCTAC,-0.19 ± 0.015
16,CGTGGTCA,0.102 ± 0.027
17,ATAAAATG,-0.114 ± 0.021
18,ACTCTGGC,-0.0882 ± 0.044
19,AATATTAC,-0.0701 ± 0.068
20,AAGGACCA,-0.196 ± 0.017
21,ATATCGCA,0.197 ± 0.045
22,AGCGGGAT,-0.155 ± 0.021
23,ATTTCATG,-0.179 ± 0.013
24,GATATGGC,-0.116 ± 0.086
25,CCGGGAGG,-0.0709 ± 0.013

row,Sequence,PBM E-score of 8-mer
1,CGAAATGA,0.0519 ± 0.022
2,CAGAAGGC,0.198 ± 0.043
3,CTGTTGGA,0.0702 ± 0.044
4,AGACAGAA,-0.125 ± 0.006
5,ATTGAGTA,-0.0779 ± 0.023
6,GGAGACTA,-0.249 ± 0.027
7,ACAGATGG,-0.12 ± 0.0086
8,AGGATGAC,0.0367 ± 0.12
9,ATGGTCGA,0.00294 ± 0.03
10,ACACGTGT,0.395 ± 0.0082
11,GGAAGAGA,-0.229 ± 0.021
12,CCGCCAGC,-0.0351 ± 0.072
13,GAACGTCA,-0.0514 ± 0.1
14,CGGTATTA,0.0771 ± 0.012
15,CAGAGCGG,-0.287 ± 0.061
16,CCTGCCTA,-0.159 ± 0.015
17,AGTTGTTG,0.245 ± 0.024
18,ATATACTA,0.011 ± 0.11
19,CCCGTGTA,-0.107 ± 0.032
20,AAGAAACG,-0.227 ± 0.091
21,TCAGTCGA,-0.0358 ± 0.019
22,CCTGAGAA,-0.173 ± 0.085
23,GGCTACCC,-0.193 ± 0.0063
24,GGATCCGA,-0.0865 ± 0.026
25,GACATGTC,0.192 ± 0.052

row,Sequence,PBM E-score of 8-mer
1,ATTATCTA,-0.127 ± 0.056
2,ACCCGGAC,0.013 ± 0.009
3,AAAAAACA,-0.111 ± 0.083
4,GTTATGCA,0.039 ± 0.038
5,GAAGGCGA,0.175 ± 0.0091
6,ATCATACC,-0.211 ± 0.084
7,CGTAACTA,-0.166 ± 0.044
8,AAAAGAGC,-0.135 ± 0.0089
9,AGTATATC,-0.115 ± 0.034
10,ATGTAGGA,0.038 ± 0.033
11,ATCGACAT,-0.0174 ± 0.1
12,CGGTTTTC,-0.0891 ± 0.0075
13,CGTTCGGC,-0.0415 ± 0.015
14,GCTGCACC,0.141 ± 0.011
15,CGCATTAC,0.136 ± 0.0027
16,CTACCATC,0.0351 ± 0.025
17,AGAGCTTA,-0.124 ± 0.0042
18,ATCTCATA,-0.184 ± 0.074
19,CCCGGAAC,-0.208 ± 0.096
20,AACTGTAA,0.0753 ± 0.045
21,GAGGCCGC,-0.104 ± 0.058
22,ACCTCATC,-0.0449 ± 0.071
23,CGGGCTTA,-0.207 ± 0.027
24,CGGACCCG,0.0712 ± 0.068
25,AGCGGGTG,0.259 ± 0.027

row,Sequence,PBM E-score of 8-mer
1,GATTACAC,0.326 ± 0.022
2,GCAAGGGA,-0.0505 ± 0.022
3,ACCTTCAC,0.3011 ± 0.0014
4,ATATTATC,-0.000595 ± 0.005
5,AGTCGCTA,0.276 ± 0.033
6,CATAGCCA,-0.0202 ± 0.041
7,CTAGGCCC,-0.305 ± 0.051
8,GTGGGACA,0.12 ± 0.043
9,CAAGTCCC,0.0954 ± 0.012
10,GACCGTAC,-0.15 ± 0.024
11,CACTGAAA,0.0593 ± 0.057
12,ATGTCCAC,-0.16 ± 0.088
13,ATCCTATA,-0.0834 ± 0.011
14,CGATAATC,0.153 ± 0.056
15,ACGTCACC,0.224 ± 0.053
16,ACACCAGG,0.251 ± 0.02
17,AAATCAAC,0.0957 ± 0.027
18,CTCGCTCC,0.0375 ± 0.052
19,AGGTATTC,0.044 ± 0.074
20,AATACGCA,0.0873 ± 0.018
21,ACGCGGGC,-0.117 ± 0.035
22,AGCGAGCA,0.0954 ± 0.074
23,GTCGCCTA,0.14 ± 0.059
24,CCACGGAC,-0.111 ± 0.032
25,CGAGCCAA,-0.151 ± 0.032

row,Sequence,PBM E-score of 8-mer
1,CTCAGAAA,-0.244 ± 0.042
2,CTTACCCC,-0.0856 ± 0.04
3,ACTTGTTG,0.319 ± 0.0088
4,AGTACGCA,-0.0448 ± 0.049
5,AAGAGACG,-0.15 ± 0.032
6,AAGGAGTG,0.163 ± 0.07
7,ATGTACCG,-0.106 ± 0.003
8,ACCAATAT,0.115 ± 0.053
9,CAGACTAA,-0.19 ± 0.09
10,CGGCTCTA,-0.0822 ± 0.011
11,ACCTCGCA,0.24 ± 0.063
12,AACAGCAA,0.0761 ± 0.015
13,CGCCAAGC,0.115 ± 0.0023
14,ACACACGC,0.171 ± 0.04
15,AACCGTGA,0.277 ± 0.026
16,GAGACCTC,-0.305 ± 0.013
17,CACGGTGA,0.185 ± 0.04
18,CTCGGCGC,0.0434 ± 0.029
19,ACGCAATG,-0.0244 ± 0.029
20,CGGCCATA,-0.131 ± 0.035
21,CGCCATAG,-0.0513 ± 0.0075
22,ATAGCACC,0.387 ± 0.011
23,AGGTCTTA,-0.0667 ± 0.12
24,ATGTAAAG,-0.233 ± 0.0058
25,CAGCATAG,-0.0908 ± 0.019

row,Sequence,PBM E-score of 8-mer
1,CAGAGTCG,0.144 ± 0.077
2,CGTCGGCC,-0.0611 ± 0.048
3,ATGACAAG,0.199 ± 0.0097
4,GAGCCTTA,-0.298 ± 0.017
5,GACTTGGC,0.0377 ± 0.00048
6,GTACGTAC,0.000805 ± 0.068
7,GTCATTCA,0.103 ± 0.013
8,GCAAAACA,0.08 ± 0.034
9,AATACTAT,-0.141 ± 0.092
10,CGCGGGGA,0.0133 ± 0.076
11,ACCCGTAA,-0.0356 ± 0.034
12,CCCTCGAC,0.157 ± 0.038
13,AAGATATA,-0.0525 ± 0.16
14,CTGCAACA,-0.0244 ± 0.016
15,CCTGTGTA,-0.175 ± 0.024
16,ATCTATCA,-0.0518 ± 0.005
17,AGAGATAC,-0.178 ± 0.017
18,CAGGAGAG,-0.294 ± 0.031
19,AGGGTGTC,0.401 ± 0.015
20,AGAGCAAA,-0.172 ± 0.065
21,CCAAGAGG,0.12 ± 0.0026
22,CAAGACCA,-0.19 ± 0.1
